{
  "sequences": {"note": "Sequences of proteins named here, by UniProt entry; tags and fusion partners are left off. Residues count along the entry.", "UniProt P61960": "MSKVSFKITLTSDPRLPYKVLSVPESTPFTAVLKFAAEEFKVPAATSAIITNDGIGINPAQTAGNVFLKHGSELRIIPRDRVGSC", "UniProt P05161, residues 1-157": "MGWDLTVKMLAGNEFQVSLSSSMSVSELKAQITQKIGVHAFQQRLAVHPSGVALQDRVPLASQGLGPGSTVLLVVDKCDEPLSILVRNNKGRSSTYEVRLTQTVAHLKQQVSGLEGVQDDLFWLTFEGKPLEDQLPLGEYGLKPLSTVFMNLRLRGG"},
  "source": "paper PMC7005872",
  "binders": {"B1": {"name": "GFP-TBC1D9 (TBC1 domain family member 9) (protein, UniProt Q6ZT07 1-1266)", "chain": "MWVNPEEVLLANALWITERANPYFILQRRKGHAGDGGGGGGLAGLLVGTLDVVLDSSARVAPYRILYQTPDSLVYWTIACGGSRKEITEHWEWLEQNLLQTLSIFENENDITTFVRGKIQGIIAEYNKINDVKEDDDTEKFKEAIVKFHRLFGMPEEEKLVNYYSCSYWKGKVPRQGWMYLSINHLCFYSFLMGREAKLVIRWVDITQLEKNATLLLPDVIKVSTRSSEHFFSVFLNINETFKLMEQLANIAMRQLLDNEGFEQDRSLPKLKRKSPKKVSALKRDLDARAKSERYRALFRLPKDEKLDGHTDCTLWTPFNKMHILGQMFVSTNYICFTSKEENLCSLIIPLREVTIVEKADSSSVLPSPLSISTRNRMTFLFANLKDRDFLVQRISDFLQQTTSKIYSDKEFAGSYNSSDDEVYSRPSSLVSSSPQRSTSSDADGERQFNLNGNSVPTATQTLMTMYRRRSPEEFNPKLAKEFLKEQAWKIHFAEYGQGICMYRTEKTRELVLKGIPESMRGELWLLLSGAINEKATHPGYYEDLVEKSMGKYNLATEEIERDLHRSLPEHPAFQNEMGIAALRRVLTAYAFRNPNIGYCQAMNIVTSVLLLYAKEEEAFWLLVALCERMLPDYYNTRVVGALVDQGVFEELARDYVPQLYDCMQDLGVISTISLSWFLTLFLSVMPFESAVVVVDCFFYEGIKVIFQLALAVLDANVDKLLNCKDDGEAMTVLGRYLDSVTNKDSTLPPIPHLHSLLSDDVEPYPEVDIFRLIRTSYEKFGTIRADLIEQMRFKQRLKVIQTLEDTTKRNVVRTIVTETSFTIDELEELYALFKAEHLTSCYWGGSSNALDRHDPSLPYLEQYRIDFEQFKGMFALLFPWACGTHSDVLASRLFQLLDENGDSLINFREFVSGLSAACHGDLTEKLKLLYKMHVLPEPSSDQDEPDSAFEATQYFFEDITPECTHVVGLDSRSKQGADDGFVTVSLKPDKGKRANSQENRNYLRLWTPENKSKSKNAKDLPKLNQGQFIELCKTMYNMFSEDPNEQELYHATAAVTSLLLEIGEVGKLFVAQPAKEGGSGGSGPSCHQGIPGVLFPKKGPGQPYVVESVEPLPASLAPDSEEHSLGGQMEDIKLEDSSPRDNGACSSMLISDDDTKDDSSMSSYSVLSAGSHEEDKLHCEDIGEDTVLVRSGQGTAALPRSTSLDRDWAITFEQFLASLLTEPALVKYFDKPVCMMARITSAKNIRMMGKPLTSASDYEISAMSG"}},
  "key": {"[1]": {"target": "T1, FLAG-TBK1 (TANK-binding kinase 1) (UniProt Q9UHD2)", "T1 sequence": "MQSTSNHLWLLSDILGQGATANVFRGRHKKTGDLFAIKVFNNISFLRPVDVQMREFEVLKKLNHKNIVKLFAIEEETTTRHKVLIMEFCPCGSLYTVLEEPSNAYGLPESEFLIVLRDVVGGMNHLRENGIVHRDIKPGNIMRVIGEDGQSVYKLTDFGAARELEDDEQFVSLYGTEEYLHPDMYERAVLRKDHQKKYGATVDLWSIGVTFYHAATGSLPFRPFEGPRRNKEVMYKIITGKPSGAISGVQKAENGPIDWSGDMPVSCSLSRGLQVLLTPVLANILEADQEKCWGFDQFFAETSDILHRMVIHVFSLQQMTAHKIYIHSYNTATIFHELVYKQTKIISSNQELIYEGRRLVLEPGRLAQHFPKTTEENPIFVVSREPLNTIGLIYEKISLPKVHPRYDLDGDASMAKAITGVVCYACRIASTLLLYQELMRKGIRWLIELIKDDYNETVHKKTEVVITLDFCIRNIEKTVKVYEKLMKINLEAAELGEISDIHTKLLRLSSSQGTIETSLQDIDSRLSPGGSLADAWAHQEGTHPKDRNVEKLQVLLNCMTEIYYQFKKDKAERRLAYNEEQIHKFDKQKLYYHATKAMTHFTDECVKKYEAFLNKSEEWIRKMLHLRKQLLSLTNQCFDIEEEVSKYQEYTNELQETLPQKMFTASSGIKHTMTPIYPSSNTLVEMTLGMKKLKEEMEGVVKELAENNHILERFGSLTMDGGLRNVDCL", "test": "co-IP; transiently expressed tagged proteins; lysis in 10 mM Tris-HCl pH 7.4, 150 mM NaCl, 10 mM MgCl2, 1 mM EDTA, 1% Triton X-100; antibody 2 h and Protein G Sepharose 1 h at 4 °C; five washes; immunoblot"}, "[2]": {"target": "GST-UFM1 (ubiquitin-fold modifier 1) (human) (UniProt P61960)", "test": "pull-down; beads coated with GST-fusion proteins incubated 2 h at 4 °C with lysate of transfected HeLa cells (50 mM HEPES pH 7.4, 250 mM NaCl, 10 mM MgCl2, 1% Triton X-100); five washes; immunoblot with anti-GFP; only the target purified"}, "[3]": {"target": "GST-ISG15 (IFN-stimulated gene 15) (human) (UniProt P05161)", "test": "pull-down; beads coated with GST-fusion proteins incubated 2 h at 4 °C with lysate of transfected HeLa cells (50 mM HEPES pH 7.4, 250 mM NaCl, 10 mM MgCl2, 1% Triton X-100); five washes; immunoblot with anti-GFP; only the target purified"}},
  "note": "Results are given in words; binding and its absence hold for the method and conditions named. In cells and extracts the contact can be indirect. Some entries that bind do so weakly or less than the wild type. Where a sequence is shown, tags or fusion partners need not be part of it.",
  "data": [
    {"binder": "B1", "values": [
      {"measurement": "binding", "setting": "[1]", "value": "binds"},
      {"measurement": "binding", "setting": "[2]", "value": "no binding"},
      {"measurement": "binding", "setting": "[3]", "value": "no binding"}
    ]}
  ]
}
